Data taken from the supplement of paper PMC3334620.
The full ranking holds about 33,000 sequences; the median of “E-score (-0.5 to 0.5)” is about -0.035, and the highest 2% start at about 0.35. Some of the results follow.

biological target: T1, Pdr3 (UniProt P33200); assay: PBM E-score (8-mer binding enrichment) (E-score (-0.5 to 0.5)); higher = stronger / more preferred TF binding; most listed sequences are background and not binding sites; conditions: protein concentration: 200 nM; construct: GST-full length
T1 sequence: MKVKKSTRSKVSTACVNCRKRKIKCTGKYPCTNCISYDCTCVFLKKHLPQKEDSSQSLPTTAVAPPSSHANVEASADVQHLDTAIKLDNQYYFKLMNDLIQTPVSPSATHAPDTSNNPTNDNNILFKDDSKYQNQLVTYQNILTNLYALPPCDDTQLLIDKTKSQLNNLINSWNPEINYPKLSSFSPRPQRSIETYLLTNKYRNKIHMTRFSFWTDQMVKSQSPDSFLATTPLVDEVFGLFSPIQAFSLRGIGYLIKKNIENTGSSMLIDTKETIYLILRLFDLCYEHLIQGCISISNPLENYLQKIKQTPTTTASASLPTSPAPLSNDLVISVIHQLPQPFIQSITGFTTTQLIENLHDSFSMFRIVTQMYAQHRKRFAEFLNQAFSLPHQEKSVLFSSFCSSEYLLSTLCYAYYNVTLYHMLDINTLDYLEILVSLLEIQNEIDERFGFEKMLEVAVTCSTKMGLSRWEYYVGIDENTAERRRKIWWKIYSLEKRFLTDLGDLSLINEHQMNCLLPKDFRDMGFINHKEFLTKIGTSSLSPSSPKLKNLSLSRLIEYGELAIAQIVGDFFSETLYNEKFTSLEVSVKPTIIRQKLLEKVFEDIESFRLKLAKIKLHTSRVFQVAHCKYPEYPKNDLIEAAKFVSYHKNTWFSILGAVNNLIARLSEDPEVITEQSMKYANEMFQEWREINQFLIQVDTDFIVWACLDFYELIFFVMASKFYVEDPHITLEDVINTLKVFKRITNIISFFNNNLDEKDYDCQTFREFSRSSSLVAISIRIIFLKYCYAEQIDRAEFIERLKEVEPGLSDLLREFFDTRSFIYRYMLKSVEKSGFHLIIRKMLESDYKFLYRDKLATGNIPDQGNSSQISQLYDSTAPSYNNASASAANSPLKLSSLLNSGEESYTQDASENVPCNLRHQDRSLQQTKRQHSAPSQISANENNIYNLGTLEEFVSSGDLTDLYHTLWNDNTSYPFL
In short: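 Yeast transcription factors carrying a GST tag, as full-length proteins or DNA-binding domains, were produced by PURExpress in vitro transcription/translation. About 100-200 nM protein was applied to universal all-10-mer Agilent arrays, double-stranded by primer extension on fresh or once-stripped slides. Bound protein was detected with fluorescent anti-GST, and scans were normalised with masliner. The Universal PBM Analysis Suite gave each ungapped eight-base word, pooled with its reverse complement, an E-score, a modified Wilcoxon-Mann-Whitney statistic.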

Sequence	PBM E-score
CACCCACG	0.209
ATATGGCA	-0.172
ACCAGTTA	-0.0626
CGCTGTCA	-0.0586
AATCCTCG	-0.119
AGTGTCTC	-0.136
CCGTTTAA	0.147
GTGTGTGA	-0.0291
GAATGGTA	-0.103
ATGGCAAC	0.0596
AAATCGTA	-0.103
GTTCTTCA	-0.074
CACACAGG	0.0218
ACTCGTCA	-0.167
CTTAGGGA	-0.353
AAGTTAGG	-0.117
AGTGTCAG	-0.135
ACTCCATC	0.252
GGACCCTA	-0.03
GCTGCGGA	0.272
GTGTATCA	0.00324
CAGCACAC	-0.275

Sequence	PBM E-score
ACAACAAG	-0.138
ACGTGCAT	-0.256
CTAGCACA	-0.228
ACTTCCCC	-0.132
TTCGACAA	-0.036
CCCCAACG	0.0159
CGAGTAAC	0.0595
CACAGCGC	0.161
GTCCTAAC	-0.255
CAATCGTA	-0.0642
AAGGGGGG	-0.396
ACTAGGGC	-0.218
CGCCGCCG	0.294
ATCCAAAG	-0.0915
CAGTACTG	0.0824
ATGGATGC	-0.132
ATTAACCG	0.313
GACTCTAC	-0.224
TACTGGAA	-0.046
CGGTCTAG	-0.00415
GGAGGGCA	-0.158
AAAATACG	-0.0516

Sequence	PBM E-score
CAATTTCA	-0.14
GTGTTGGA	-0.0442
CACCTTAA	-0.092
CGGGTCAA	0.387
CATCGTAC	-0.112
GTCGACAC	-0.00728
TACGTAAA	-0.436
AATTATGG	-0.00297
CCAGCCCC	-0.0573
TGGTCAAA	-0.0459
TGTGAACA	-0.0898
AACTAAGG	0.0237
GGCTTTGA	0.0647
CGACCCTC	-0.186
AAGGCGTG	-0.267
GACGCCCA	0.05
AGGCGAAC	-0.114
GAGAAGCA	-0.15
CTAATAAA	-0.0684
AGGCCAAT	-0.0324
CCGTTAGG	0.0121
AGCTAACA	-0.178

Sequence	PBM E-score
CAATAGAC	0.0262
ATCCCTAC	0.0333
GAGAGGGA	-0.279
ACATCCCA	-0.0829
CAAGTCCG	0.221
AAATATGT	0.24
AAAATACT	0.175
AGGTCTAA	-0.0213
ACATGCCC	-0.0672
CCCGTAGA	-0.144
ACCACGGT	-0.263
ACAATCGC	0.181
GTCAGCGA	-0.165
AATCAGGG	-0.24
ACGGGACG	0.295
ATGAATTG	0.0561
GCACCCCA	0.0981
ATATTCAG	-0.00991
CCCACCAG	-0.0926
ATGAGTCA	-0.213
GTTGATGA	0.0587
TATATAAA	-0.0354

Sequence	PBM E-score
ACCTCACC	-0.0307
CATTCTCA	0.0162
ACTCATGA	-0.108
CACGGCCG	0.314
GATTTTGA	0.117
AATTTATG	0.0637
AGGACGAC	-0.205
CATACGCA	-0.0277
TATAATAA	0.0926
AGACCTTA	-0.0346
AGATTACG	0.0218
TTTCCAAA	-0.165
CCAATGGG	-0.151
CACGTTCC	0.25
ACCGGTTC	0.175
CATCTAGC	-0.128
ATGAAGCG	-0.0578
CGCGACGA	0.0966
CAAGCTAG	-0.291
CAAACACA	-0.149
AGGTCGCC	0.117
